Assay results as given in US11147877B2, “Compositions and methods for treating CNS disorders” (Sage Therapeutics, Inc., priority 2015, dated 2021).
At least one structure is not confirmed: it was looked up by name or label, or the drawing left a doubt.

Biological target: [35S]-TBPS binding, rat brain cortical membranes (GABAA receptor)
Test: Steroid inhibition of [35S]-TBPS binding (radioligand displacement)
Conditions: 3 nM [35S]-TBPS, in the presence of 5 μM GABA

SMILES | IC50
COC[C@]12CC[C@@](C)(O)C[C@@H]1CC[C@H]1[C@@H]3CC[C@H](c4cc(CO)on4)[C@@]3(C)CC[C@@H]12 [Compound 1] | 0.02 to 0.2 µM
COC[C@]12CC[C@@](C)(O)C[C@@H]1CC[C@H]1[C@@H]3CC[C@H](c4ccon4)[C@@]3(C)CC[C@@H]12 [Compound 2] | < 0.02 µM
COC[C@]12CC[C@@](C)(O)C[C@@H]1CC[C@H]1[C@@H]3CC[C@H](c4ccno4)[C@@]3(C)CC[C@@H]12 [Compound 3] | 0.2 to 0.5 µM
C[C@@]1(O)CC[C@@]2(C)[C@H](CC[C@@H]3[C@@H]2CC[C@]2(C)[C@@H](c4cc(CO)on4)CC[C@@H]32)C1 [Compound 4] | 0.02 to 0.2 µM
COC[C@]12CC[C@@](C)(O)C[C@H]1CC[C@H]1[C@@H]3CC[C@H](c4cc(CO)on4)[C@@]3(C)CC[C@@H]12 [Compound 5] | 0.02 to 0.2 µM
C[C@@]1(O)CC[C@H]2[C@H](CC[C@@H]3[C@@H]2CC[C@]2(C)[C@@H](c4ccon4)CC[C@@H]32)C1 [Compound 7] | 0.02 to 0.2 µM
C[C@@]1(O)CC[C@H]2[C@H](CC[C@@H]3[C@@H]2CC[C@]2(C)[C@@H](c4cc(CO)on4)CC[C@@H]32)C1 [Compound 8] | 0.2 to 0.5 µM
C[C@@]1(O)CC[C@H]2[C@H](CC[C@@H]3[C@@H]2CC[C@]2(C)[C@@H](c4ccon4)CC[C@@H]32)C1 [Compound 9] | 0.2 to 0.5 µM
C[C@@]1(O)CC[C@@]2(C)[C@H](CC[C@@H]3[C@@H]2CC[C@]2(C)[C@@H](c4ccon4)CC[C@@H]32)C1 [Compound 10] | 0.02 to 0.2 µM
COC[C@]12CC[C@@](C)(O)C[C@H]1CC[C@H]1[C@@H]3CC[C@H](c4cn5ccccc5n4)[C@@]3(C)CC[C@@H]12 [Compound 12] | > 0.5 µM
C[C@@]1(O)CC[C@@]2(C)[C@H](CC[C@@H]3[C@@H]2CC[C@]2(C)[C@@H](c4cn5ccccc5n4)CC[C@@H]32)C1 [Compound 15] | > 0.5 µM
C[C@@]1(O)CC[C@H]2[C@@H](CC[C@@H]3[C@@H]2CC[C@]2(C)[C@@H](c4cn5ccccc5n4)CC[C@@H]32)C1 [Compound 16] | > 0.5 µM
C[C@@]1(O)CC[C@H]2[C@@H](CC[C@@H]3[C@@H]2CC[C@]2(C)[C@@H](c4ccno4)CC[C@@H]32)C1 [Compound 19] | > 0.5 µM
COC[C@]12CC[C@@](C)(O)C[C@@H]1CCC1[C@@H]3CC[C@H](c4cn5ccccc5n4)[C@@]3(C)CC[C@@H]12 (some centres unmarked) [Compound 20] | > 0.5 µM
